Measurements as given in the supplement of paper PMC6206098.
± gives the uncertainty stated by the source. The sequences are guide strands of siRNAs; only the seed at positions 2 to 7 varies.

How the values were obtained:
3LL = experiment: cell viability relative to siNT1 control; higher = less toxic; settings: concentration: 10 nM; 96 h; Mus musculus;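 note: Luminescence-based viability of cells reverse transfected in 384-well plates with lipid-complexed siRNAs built on a non-toxic 19mer backbone whose passenger strand carries 2′-O-methyl groups at positions 1 and 2, triplicates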
Procedure: (§1)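 Arrayed screen of 4096 siRNA duplexes, each carrying one of all possible 6mer seeds at guide-strand positions 2-7 in a fixed neutral 19mer scaffold (constant flanks: U at position 1, then ACAUGUAAACCA, plus a 3' AA overhang). The passenger strand is 2'-O-methylated at positions 1-2 so only the guide strand loads into RISC. Duplexes were reverse-transfected at 10 nM with RNAiMAX in triplicate in 384-well plates; viability was read by CellTiter-Glo ATP content 96 h after transfection. Values are % viability normalised to lipid-only wells (HeyA8, H460, M565) or to siNT1 (3LL).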

H460 = experiment: cell viability relative to lipid-only control; HeyA8 human ovarian and H460 human lung cancer; M565 mouse liver and 3LL mouse lung cancer; siNT1 is a non-toxic control siRNA; higher = less toxic; settings: concentration: 10 nM; 96 h; Homo sapiens
Procedure: as §1

M565 = experiment: as above; settings: concentration: 10 nM; 96 h; Mus musculus
Procedure: as §1

HeyA8 = experiment: as above; settings: concentration: 10 nM; 96 h; Homo sapiens
Procedure: as §1
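Throughout, for cell viability relative to lipid-only control: reverse lipid transfection in 384-well plates, in triplicate, of duplexes on a non-toxic 19mer backbone with passenger strand 2′-O-methylated at positions 1 and 2, luminescence viability read-out.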

Row | Sequence | cell viability (3LL) [%] | cell viability (H460) [%] | cell viability (M565) [%] | cell viability (HeyA8) [%]
1 | UGUGGCAACAUGUAAACCAAA | 26.6 ± 13 | 53.6 ± 7.4 | 34.1 ± 10 | 20 ± 3.1
2 | UUAGAUCACAUGUAAACCAAA | 61.4 ± 6.9 | 66.8 ± 4 | 59.1 ± 15 | 65 ± 7
3 | UGUUAACACAUGUAAACCAAA | 98.2 ± 7.1 | 64.8 ± 4 | 55.8 ± 8.4 | 61.6 ± 15
4 | UCAUGGGACAUGUAAACCAAA | 50.7 ± 15 | 17.3 ± 1.2 | 3.2 ± 0.38 | 18.5 ± 1.3
5 | UGUAGAGACAUGUAAACCAAA | 81.5 ± 1.4 | 62.4 ± 12 | 41.7 ± 8.4 | 72.7 ± 11
6 | UUCUAGAACAUGUAAACCAAA | 89.5 ± 9.5 | 50.3 ± 3.2 | 74.3 ± 17 | 97.7 ± 4
7 | UUGAACCACAUGUAAACCAAA | 54 ± 8.8 | 71 ± 16 | 61.2 ± 10 | 81 ± 6.2
8 | UAAAGUGACAUGUAAACCAAA | 109 ± 9 | 79.7 ± 17 | 101 ± 32 | 98 ± 8.1
9 | UUACUGAACAUGUAAACCAAA | 97.9 ± 13 | 79 ± 6.5 | 68 ± 13 | 102 ± 8.8
10 | UGGCCGCACAUGUAAACCAAA | 8.13 ± 4.3 | 24.4 ± 0.53 | 6.8 ± 3.4 | 7.39 ± 0.8
11 | UCGCUCAACAUGUAAACCAAA | 96.7 ± 13 | 65.6 ± 13 | 87.9 ± 4.9 | 79.8 ± 5.1
12 | UGGUCACACAUGUAAACCAAA | 47.3 ± 1.4 | 39.5 ± 1.6 | 55.9 ± 8.2 | 78.2 ± 5
13 | UGUCGUGACAUGUAAACCAAA | 88.6 ± 20 | 69.2 ± 16 | 60.9 ± 2.5 | 66.5 ± 16
14 | UACGCCGACAUGUAAACCAAA | 79.3 ± 4.7 | 107 ± 8.8 | 71.5 ± 9.6 | 86.7 ± 9.5
15 | UACGAUUACAUGUAAACCAAA | 93.5 ± 14 | 73.6 ± 8.2 | 72.4 ± 8.5 | 84.8 ± 8.4
16 | UGGUGCAACAUGUAAACCAAA | 30.1 ± 9.3 | 24.3 ± 3.7 | 13.2 ± 1.6 | 15.1 ± 0.48
17 | UAAUUUCACAUGUAAACCAAA | 47.7 ± 6.1 | 59.8 ± 4.2 | 101 ± 23 | 83.9 ± 4.9
18 | UACGCCUACAUGUAAACCAAA | 62.4 ± 2.5 | 71.6 ± 19 | 60.2 ± 12 | 79.5 ± 14
19 | UUAGGGGACAUGUAAACCAAA | 55.8 ± 12 | 77.1 ± 7.1 | 68.5 ± 17 | 70.3 ± 7.4
20 | UGUGCGUACAUGUAAACCAAA | 44.6 ± 7.4 | 68.3 ± 7.9 | 48.2 ± 4.7 | 62.4 ± 6.4

Row | Sequence | cell viability (3LL) [%] | cell viability (H460) [%] | cell viability (M565) [%] | cell viability (HeyA8) [%]
21 | UCGUAACACAUGUAAACCAAA | 90.5 ± 13 | 88.2 ± 6.7 | 64.5 ± 6.8 | 85.8 ± 7.8
22 | UUGUAGCACAUGUAAACCAAA | 12.5 ± 5.3 | 48.3 ± 7.3 | 16.4 ± 1.9 | 39.5 ± 3.4
23 | UGCCUAGACAUGUAAACCAAA | 78.5 ± 13 | 43 ± 1.4 | 50.3 ± 2.1 | 67.8 ± 4.4
24 | UAUCGCUACAUGUAAACCAAA | 61.5 ± 7.9 | 47 ± 5.8 | 75.7 ± 5.8 | 81.8 ± 11
25 | UUAAGGCACAUGUAAACCAAA | 10.1 ± 4 | 23.3 ± 1.1 | 9.08 ± 4.3 | 13.7 ± 1.2
26 | UAACGUCACAUGUAAACCAAA | 75.6 ± 6.5 | 68.6 ± 5 | 28.7 ± 3.5 | 75.4 ± 4.4
27 | UCGAGACACAUGUAAACCAAA | 81.4 ± 16 | 71.7 ± 8.7 | 25 ± 3 | 77.5 ± 6.1
28 | UGAUAUAACAUGUAAACCAAA | 82.5 ± 16 | 60.2 ± 5.5 | 90 ± 6 | 67.3 ± 1.1
29 | UUCCGCUACAUGUAAACCAAA | 70.7 ± 21 | 46.8 ± 3.8 | 73.2 ± 11 | 59.3 ± 8.5
30 | UUGGGGAACAUGUAAACCAAA | 65.6 ± 5.9 | 43.8 ± 3.5 | 40 ± 2.5 | 31.74 ± 0.12
31 | UCAGGCCACAUGUAAACCAAA | 10.2 ± 4.4 | 15.8 ± 1.6 | 3.41 ± 0.43 | 8.14 ± 0.1
32 | UUGUGAGACAUGUAAACCAAA | 32.5 ± 5.1 | 54.2 ± 6.2 | 11.4 ± 6.2 | 55 ± 2.2
33 | UUACGAGACAUGUAAACCAAA | 105 ± 15 | 92.3 ± 10 | 71.1 ± 20 | 96 ± 6.7
34 | UUGACAGACAUGUAAACCAAA | 54.8 ± 6 | 59.3 ± 3.9 | 44 ± 4.7 | 90.2 ± 12
35 | UGGGCGGACAUGUAAACCAAA | 10.6 ± 0.93 | 7.67 ± 0.62 | 18.1 ± 4.8 | 1.62 ± 0.04
36 | UCCUGAAACAUGUAAACCAAA | 94.1 ± 16 | 94.6 ± 6.9 | 86.1 ± 13 | 84.7 ± 2.1
37 | UCUUGUGACAUGUAAACCAAA | 91.1 ± 16 | 63.4 ± 8.5 | 72.7 ± 18 | 82.4 ± 6.7
38 | UCAGCAAACAUGUAAACCAAA | 95.1 ± 12 | 63.4 ± 3.6 | 70.7 ± 12 | 86.2 ± 5.4
39 | UGAACUUACAUGUAAACCAAA | 90.3 ± 11 | 85.9 ± 14 | 77.6 ± 18 | 52 ± 2.6
40 | UUUCACGACAUGUAAACCAAA | 103 ± 4 | 20.7 ± 2.7 | 85.2 ± 13 | 102 ± 1.3

Row | Sequence | cell viability (3LL) [%] | cell viability (H460) [%] | cell viability (M565) [%] | cell viability (HeyA8) [%]
41 | UUUGAUCACAUGUAAACCAAA | 79.8 ± 17 | 72.5 ± 4.1 | 64.7 ± 9.4 | 74.8 ± 8.7
42 | UAUCGACACAUGUAAACCAAA | 115 ± 14 | 91.9 ± 4.3 | 75.6 ± 8.4 | 92.3 ± 2.6
43 | UACCAAGACAUGUAAACCAAA | 85.2 ± 2.7 | 43.9 ± 5 | 48.1 ± 8.5 | 81.3 ± 8.6
44 | UAUGACCACAUGUAAACCAAA | 43 ± 3.8 | 54.7 ± 15 | 44.9 ± 5.6 | 48.3 ± 6.6
45 | UAUUUGAACAUGUAAACCAAA | 83.8 ± 14 | 101 ± 11 | 114 ± 12 | 92.1 ± 6.1
46 | UGGCUGCACAUGUAAACCAAA | 25.4 ± 5.5 | 23.2 ± 1.2 | 5.78 ± 1.3 | 5 ± 0.78
47 | UGGAACAACAUGUAAACCAAA | 78 ± 8.8 | 77.2 ± 11 | 17.1 ± 1.2 | 79.9 ± 3.5
48 | UACGGCAACAUGUAAACCAAA | 74 ± 12 | 77 ± 16 | 68.7 ± 5.2 | 69.6 ± 7.5
49 | UGCAACCACAUGUAAACCAAA | 34.8 ± 5.2 | 37.9 ± 3.1 | 23.4 ± 2.9 | 14.9 ± 1.5
50 | UUGGGAUACAUGUAAACCAAA | 15.5 ± 3.5 | 53.8 ± 2.2 | 20.8 ± 1.5 | 60.8 ± 1.6
51 | UACGGAAACAUGUAAACCAAA | 91.2 ± 12 | 96.2 ± 29 | 84.9 ± 14 | 92 ± 5.2
52 | UGUGGUAACAUGUAAACCAAA | 51.2 ± 16 | 61 ± 7.5 | 54.7 ± 5.1 | 62.6 ± 12
53 | UAUUACAACAUGUAAACCAAA | 98.3 ± 17 | 64.4 ± 6.1 | 97.9 ± 20 | 99.8 ± 16
54 | UUUACCAACAUGUAAACCAAA | 106 ± 15 |  |  | 100 ± 6.7
55 | UCCAGAUACAUGUAAACCAAA | 104 ± 36 |  |  | 
56 | UAAUUUGACAUGUAAACCAAA |  |  |  | 94.3 ± 3.4
57 | UGAUUUAACAUGUAAACCAAA | 74.2 ± 18 | 73.4 ± 12 |  | 73.9 ± 6.9
58 | UAAAAAUACAUGUAAACCAAA | 116 ± 18 |  |  | 
